Each structure is given as a SMILES string. This is one part of the list. Repeats are few or missing, and single values can be far off.
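Also: exons read include endogenous Mef2d, Mast2, Ergic3 and Trappc9 microexons plus the longer neural-regulated Zdhhc20, Mgrn1 and Asph cassette exons, alongside the reporter microexon.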

The assay deals with Mef2d microexon (dual-luciferase reporter). In words: delta PSI of alternative exon relative to 0.4% DMSO control (RT-PCR) (percentage points); higher = more exon inclusion. Conditions: concentration: not stated (optimised per compound); Neuro-2a. How it is done:
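Reads PSI of the Mef2d reporter microexon and of endogenous mouse neural alternative exons. dPSI is relative to the 0.4% DMSO control, single replicate.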
For `O=C1NC(=O)C(=CC=Cc2ccccc2)C(=O)N1`, the “delta PSI of alternative exon” value is -2.55.
Consider `COc1ccc(/C=C/C=C2C(=O)NC(=O)NC2=O)cc1`, for which the “delta PSI of alternative exon” value was -2.
With `Cc1n[nH]c2ccc(-c3cncc(OC[C@@H](N)Cc4c[nH]c5ccccc45)c3)cc12` the figure was 8.85; with `CC(=O)OC(C)(C)C=CC(=O)[C@](C)(O)[C@H]1[C@H](O)C[C@@]2(C)[C@@H]3CC=C4[C@@H](CC[C@H](O)C4(C)C)[C@]3(CO)C(=O)C[C@]12C`, 7.13.

(Values after the supplement of paper PMC11283458.)
